According to patent publication US20080255128A1, “PHTHALAZINONE DERIVATIVES” (priority 2007, published 2008):

Target: Mammalian PARP, isolated from Hela cell nuclear extract (Homo sapiens, UniProt P09874)
Experiment: PARP inhibition assay (FlashPlate, 3H-NAD scintillation)
Type: biochemical
Settings: NAD 5 μM, 30° C.
Experimental: In order to assess the inhibitory action of the compounds, the following assay was used to determine IC50 values (Dillon, et al., JBS., 8(3), 347-352 (2003)).
All compounds were diluted in DMSO and gave final assay concentrations of between 10 and 0.01 μM, with the DMSO being at a final concentration of 1% per well. The total assay volume per well was 40 μl.
After 10 minutes incubation at 30° C. the reactions were initiated by the addition of a 10 μl reaction mixture, containing NAD (5 μM), ^3H-NAD and 30mer double stranded DNA-oligos. Designated positive and negative reaction wells were done in combination with compound wells (unknowns) in order to calculate % enzyme activities. The plates were then shaken for 2 minutes and incubated at 30° C. for 45 minutes.
Following the incubation, the reactions were quenched by the addition of 50 μl 30% acetic acid to each well. The plates were then shaken for 1 hour at room temperature.
The plates were transferred to a TopCount NXT (TRADE MARK) (Packard, UK) for scintillation counting. Values recorded are counts per minute (cpm) following a 30 second counting of each well.
The % enzyme activity for each compound is then calculated using the following equation: […]
IC50 values (the concentration at which 50% of the enzyme activity is inhibited) were calculated, which are determined over a range of different concentrations, normally from 10 μM down to 0.001 μM. Such IC50 values are used as comparative values to identify increased compound potencies.

IC50	Structure (SMILES)
3.8 nM	CC1C(=O)N(c2cc(Cc3n[nH]c(=O)c4ccccc34)ccc2F)C(=O)N1CCN1CCCC1 (racemic) [Compound 9, 3-(2-fluoro-5-((4-oxo-3,4-dihydrophthalazin-1-yl)methyl)phenyl)-5-methyl-1-(2-(pyrrolidin-1-yl)ethyl)imidazolidine-2,4-dione]
3 nM	CCN(C)CCN1C(=O)N(c2cc(Cc3n[nH]c(=O)c4ccccc34)ccc2F)C(=O)[C@@H]1C [Compound 12]
3.1 nM	C[C@H]1C(=O)N(c2cc(Cc3n[nH]c(=O)c4ccccc34)ccc2F)C(=O)N1CCNCCF [Compound 13]
3.8 nM	COCCNCCN1C(=O)N(c2cc(Cc3n[nH]c(=O)c4ccccc34)ccc2F)C(=O)[C@@H]1C [Compound 18]
3.2 nM	CC1CCCN1CCN1C(=O)N(c2cc(Cc3n[nH]c(=O)c4ccccc34)ccc2F)C(=O)[C@@H]1C (stereo partly drawn) [Compound 20]
2.6 nM	C[C@H]1C(=O)N(c2cc(Cc3n[nH]c(=O)c4ccccc34)ccc2F)C(=O)N1CCN1CCCCC1 [Compound 21]
2.9 nM	CC1CCCCN1CCN1C(=O)N(c2cc(Cc3n[nH]c(=O)c4ccccc34)ccc2F)C(=O)[C@@H]1C (stereo partly drawn) [Compound 22]
4.6 nM	C[C@H]1C(=O)N(c2cc(Cc3n[nH]c(=O)c4ccccc34)ccc2F)C(=O)N1CCN1CCCC(O)C1 (stereo partly drawn) [Compound 23]
4.2 nM	CCC1CCCCN1CCN1C(=O)N(c2cc(Cc3n[nH]c(=O)c4ccccc34)ccc2F)C(=O)[C@@H]1C (stereo partly drawn) [Compound 28]
3.9 nM	C[C@H]1C(=O)N(c2cc(Cc3n[nH]c(=O)c4ccccc34)ccc2F)C(=O)N1CCN1CCCC1c1ccco1 (stereo partly drawn) [Compound 29]

The remaining lines, values behind:

Structure (SMILES)	IC50
C[C@@H]1CN(CCN2C(=O)N(c3cc(Cc4n[nH]c(=O)c5ccccc45)ccc3F)C(=O)[C@@H]2C)C[C@H](C)O1 [Compound 10]	3.1 nM
C[C@H]1C(=O)N(c2cc(Cc3n[nH]c(=O)c4ccccc34)ccc2F)C(=O)N1CCN(C)C [Compound 11]	3.3 nM
C=CCN(C)CCN1C(=O)N(c2cc(Cc3n[nH]c(=O)c4ccccc34)ccc2F)C(=O)[C@@H]1C [Compound 14]	3.5 nM
CCN(CC)CCN1C(=O)N(c2cc(Cc3n[nH]c(=O)c4ccccc34)ccc2F)C(=O)[C@@H]1C [Compound 15]	3 nM
C[C@H]1C(=O)N(c2cc(Cc3n[nH]c(=O)c4ccccc34)ccc2F)C(=O)N1CCNC(C)(C)C [Compound 16]	2.9 nM
CC(C)N(C)CCN1C(=O)N(c2cc(Cc3n[nH]c(=O)c4ccccc34)ccc2F)C(=O)[C@@H]1C [Compound 17]	4 nM
C[C@H]1C(=O)N(c2cc(Cc3n[nH]c(=O)c4ccccc34)ccc2F)C(=O)N1CCN1CC=CCC1 [Compound 19]	4 nM
CC(C)N(CCO)CCN1C(=O)N(c2cc(Cc3n[nH]c(=O)c4ccccc34)ccc2F)C(=O)[C@@H]1C [Compound 24]	3.6 nM
C[C@H]1C(=O)N(c2cc(Cc3n[nH]c(=O)c4ccccc34)ccc2F)C(=O)N1CCN1CCSCC1 [Compound 25]	2.8 nM
C[C@H]1C(=O)N(c2cc(Cc3n[nH]c(=O)c4ccccc34)ccc2F)C(=O)N1CCNCc1ccccn1 [Compound 26]	3.7 nM
C[C@H]1C(=O)N(c2cc(Cc3n[nH]c(=O)c4ccccc34)ccc2F)C(=O)N1CCN(C)C1CCCCC1 [Compound 27]	3 nM
